Assay results: the supplement of paper PMC11125491
± gives the standard deviation of the averaged measurements. Growth of baker's yeast expressing single-residue variants of Pneumocystis jirovecii dihydrofolate reductase in 8.8 or 44 µM methotrexate (about 75% and 90% inhibition of the wild type). Selection coefficient per generation; 0 = like wild type, above 0 = less sensitive, below 0 = more sensitive or loss of function. No active / inactive call per row; the paper calls resistant above 0.220 (8.8 µM) or 0.243 (44 µM) together with a significance test. At 44 µM about 15% of codons end with one read or none, so the lowest values are floors (replicate rank correlation 0.74; 0.94 at 8.8 µM).

B1: UniProt A0EPZ9; numbered along this chain (parent)
chain: MDWQKSLTLIVALTLSRGIGLKNDLPWKLKSDMMFFSRVTSGLLVTRSTGQMNVVLMGRKTWESLPAHSRPLKNRINVVISRQEVLDLGGGAYHARSLDDALALLSQIYDSTSKIQLNRVFVIGGGELCKAAMEHSRLNRIIATVIHNEVDCDVFFPIDFRSSQSCLPWRKQDHSVLEAWVGSKVPQGKINENGFIYEFEMWIRDI

Variants of: B1
Experiment: selection coefficient against synonymous wild-type codons (log2 per generation); higher = faster growth than wild type
Settings: with Saccharomyces cerevisiae carrying the variant on a plasmid
Method: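 Pooled growth of yeast carrying single-residue variants of P. jirovecii dihydrofolate reductase (own DFR1 gene intact), two passages at 30 °C, three cultures, sequenced before and after. Codons with under 15 starting reads are left out; codons of one change are averaged.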

Row | Variant | selection coefficient against synonymous wild-type codons (log2) (methotrexate 8.8 µM) | selection coefficient against synonymous wild-type codons (log2) (methotrexate 44 µM)
1 | R17K | 0.217 ± 0.031 | 0.174 ± 0.005
2 | R161S | 0.171 ± 0.07 | 0.106 ± 0.052
3 | T61N | -0.0216 ± 0.042 | 0.0281 ± 0.17
4 | A12L | -0.435 ± 0.1 | -0.18 ± 0.17
5 | D173Y | -0.167 ± 0.1 | -0.0774 ± 0.096
6 | R137D | -0.11 ± 0.045 | -0.113 ± 0.11
7 | K60I | -0.519 ± 0.1 | -0.271 ± 0.043
8 | S136Y | -0.206 ± 0.044 | -0.251 ± 0.087
9 | S136N | 0.00789 ± 0.038 | 0.0153 ± 0.05
10 | Y93T | -0.454 ± 0.093 | -0.302 ± 0.033
11 | N139W | -0.392 ± 0.1 | -0.332 ± 0.07
12 | I141L | -0.373 ± 0.081 | -0.223 ± 0.099
13 | I141S | -0.623 ± 0.11 | -0.187 ± 0.069
14 | D24W | -0.271 ± 0.11 | -0.285 ± 0.051
15 | G50C | -0.0957 ± 0.041 | -0.0637 ± 0.086
16 | G50W | -0.326 ± 0.13 | -0.174 ± 0.093
17 | G50T | -0.057 ± 0.016 | -0.0568 ± 0.17
18 | G18E | 0.155 ± 0.022 | 0.219 ± 0.043
19 | T112W | -0.394 ± 0.12 | -0.383 ± 0.039
20 | D100F | -0.712 ± 0.041 | -0.209 ± 0.046
21 | D100E | -0.0429 ± 0.028 | -0.118 ± 0.14
22 | D100W | -0.754 ± 0.12 | -0.318 ± 0.093
23 | D151Q | -0.0815 ± 0.07 | 0.077 ± 0.38
24 | D151P | -0.0597 ± 0.056 | -0.127 ± 0.19

Row | Variant | selection coefficient against synonymous wild-type codons (log2) (methotrexate 8.8 µM) | selection coefficient against synonymous wild-type codons (log2) (methotrexate 44 µM)
25 | D151W | -0.325 ± 0.077 | -0.323 ± 0.059
26 | L88E | -0.384 ± 0.14 | -0.259 ± 0.042
27 | L88C | -0.233 ± 0.034 | -0.234 ± 0.19
28 | D159K | -0.00262 ± 0.044 | -0.0656 ± 0.12
29 | F35D | -0.28 ± 0.049 | -0.081 ± 0.062
30 | F35V | 0.271 ± 0.015 | 0.293 ± 0.021
31 | F35E | -0.0721 ± 0.026 | 0.243 ± 0.067
32 | P186E | -0.125 ± 0.07 | -0.264 ± 0.21
33 | P71A | 0.289 ± 0.029 | 0.325 ± 0.05
34 | I108Q | -0.258 ± 0.1 | -0.281 ± 0.075
35 | I108L | 0.0345 ± 0.032 | 0.131 ± 0.1
36 | I108Y | -0.299 ± 0.12 | -0.099 ± 0.052
37 | I108W | -0.163 ± 0.043 | -0.214 ± 0.16
38 | P66D | 0.0942 ± 0.027 | 0.0457 ± 0.098
39 | K22T | 0.234 ± 0.021 | 0.182 ± 0.054
40 | L65D | -0.385 ± 0.22 | -0.0381 ± 0.087
41 | Q164F | -0.0669 ± 0.043 | -0.136 ± 0.097
42 | Q164T | -0.063 ± 0.018 | -0.0871 ± 0.13
43 | H135M | -0.201 ± 0.026 | 0.0931 ± 0.42
44 | E178I | -0.44 ± 0.12 | -0.383 ± 0.032
45 | I196P | 0.0972 ± 0.059 | 0.00476 ± 0.16
46 | S113L | -0.399 ± 0.091 | -0.136 ± 0.099
47 | R119P | -0.222 ± 0.023 | -0.0173 ± 0.16
48 | R119N | 0.236 ± 0.013 | 0.332 ± 0.073

Row | Variant | selection coefficient against synonymous wild-type codons (log2) (methotrexate 8.8 µM) | selection coefficient against synonymous wild-type codons (log2) (methotrexate 44 µM)
49 | R119I | -0.514 ± 0.071 | -0.268 ± 0.047
50 | S37K | -0.14 ± 0.051 | -0.111 ± 0.05
51 | S37G | -0.0513 ± 0.043 | -0.0473 ± 0.057
52 | S37F | -0.366 ± 0.16 | -0.269 ± 0.059
53 | L15D | 0.317 ± 0.066 | 0.337 ± 0.05
54 | L15G | 0.316 ± 0.094 | 0.313 ± 0.086
55 | L25S | -0.039 ± 0.091 | -0.0375 ± 0.11
56 | L25G | -0.289 ± 0.061 | -0.184 ± 0.052
57 | L104E | -0.581 ± 0.047 | -0.273 ± 0.11
58 | L104M | -0.0555 ± 0.031 | -0.0176 ± 0.03
59 | L104I | -0.182 ± 0.039 | -0.171 ± 0.14
60 | N193S | -0.0375 ± 0.035 | -0.105 ± 0.18
61 | N193D | 0.0395 ± 0.029 | 0.0243 ± 0.14
62 | T40M | -0.556 ± 0.1 | -0.241 ± 0.21
63 | M34Q | 0.0809 ± 0.034 | 0.0712 ± 0.054
64 | M34W | -0.197 ± 0.025 | -0.217 ± 0.11
65 | G194K | -0.158 ± 0.032 | -0.319 ± 0.14
66 | V54S | -0.411 ± 0.14 | -0.278 ± 0.11
67 | L56A | -0.563 ± 0.14 | -0.264 ± 0.16
68 | L56I | 0.131 ± 0.033 | 0.127 ± 0.095
69 | N118D | 0.0563 ± 0.044 | 0.0675 ± 0.023
70 | L167V | 0.0459 ± 0.05 | 0.0374 ± 0.047
71 | L167T | -0.00224 ± 0.047 | -0.138 ± 0.14
72 | N148T | -0.0372 ± 0.039 | -0.151 ± 0.1

Row | Variant | selection coefficient against synonymous wild-type codons (log2) (methotrexate 8.8 µM) | selection coefficient against synonymous wild-type codons (log2) (methotrexate 44 µM)
73 | N148V | -0.297 ± 0.025 | -0.235 ± 0.098
74 | F155Y | 0.000913 ± 0.04 | 0.0977 ± 0.035
75 | F155S | 0.352 ± 0.049 | 0.343 ± 0.035
76 | E200W | 0.204 ± 0.061 | 0.247 ± 0.055
77 | Q172M | -0.0504 ± 0.03 | -0.149 ± 0.09
78 | Q172K | -0.0828 ± 0.043 | -0.118 ± 0.15
79 | A103L | -0.106 ± 0.045 | -0.035 ± 0.1
80 | K130T | -0.213 ± 0.044 | -0.124 ± 0.095
81 | K130S | -0.203 ± 0.082 | -0.0932 ± 0.16
82 | Y109M | 0.125 ± 0.066 | 0.357 ± 0.36
83 | Y109K | 0.00224 ± 0.05 | -0.101 ± 0.14
84 | G89L | -0.687 ± 0.1 | -0.242 ± 0.073
85 | G91D | 0.0933 ± 0.059 | 0.162 ± 0.083
86 | G91R | -0.0267 ± 0.027 | 0.105 ± 0.34
87 | E63M | -0.446 ± 0.021 | -0.308 ± 0.06
88 | E63G | -0.63 ± 0.03 | -0.315 ± 0.095
89 | W27D | -0.405 ± 0.064 | -0.292 ± 0.088
90 | L86Q | -0.0315 ± 0.012 | -0.305 ± 0.12
91 | L86M | -0.0915 ± 0.032 | -0.131 ± 0.24
92 | F160E | 0.503 ± 0.038 | 0.584 ± 0.051
93 | I158C | -0.0591 ± 0.04 | -0.143 ± 0.07
94 | G58T | -0.267 ± 0.047 | -0.222 ± 0.13
95 | G58V | -0.504 ± 0.15 | -0.274 ± 0.11
96 | H68E | 0.0509 ± 0.03 | 0.0379 ± 0.056

Row | Variant | selection coefficient against synonymous wild-type codons (log2) (methotrexate 8.8 µM) | selection coefficient against synonymous wild-type codons (log2) (methotrexate 44 µM)
97 | G90D | 0.0971 ± 0.04 | 0.151 ± 0.04
98 | L128T | -0.609 ± 0.13 | -0.291 ± 0.08
99 | L128V | -0.261 ± 0.041 | -0.333 ± 0.081
100 | R170N | -0.00974 ± 0.0091 | 0.00281 ± 0.012
101 | S97A | -0.647 ± 0.082 | -0.144 ± 0.07
102 | S97M | -0.697 ± 0.031 | -0.0936 ± 0.17
103 | Y197G | 0.0107 ± 0.066 | -0.0688 ± 0.14
104 | S106L | -0.296 ± 0.04 | -0.167 ± 0.13
105 | S106E | 0.0927 ± 0.036 | 0.0905 ± 0.11
106 | S106W | -0.275 ± 0.015 | 0.0866 ± 0.14
107 | S106Y | -0.187 ± 0.051 | -0.0769 ± 0.096
108 | S106R | -0.0913 ± 0.064 | -0.117 ± 0.11
109 | S106C | -0.132 ± 0.025 | -0.112 ± 0.09
110 | S106A | 0.0354 ± 0.058 | 0.0838 ± 0.14
111 | W62A | -0.554 ± 0.059 | -0.306 ± 0.06
112 | E198L | -0.476 ± 0.11 | -0.302 ± 0.16
113 | E198G | -0.0183 ± 0.06 | -0.0536 ± 0.049
114 | E198I | -0.448 ± 0.093 | -0.332 ± 0.086
115 | D110Q | -0.121 ± 0.036 | -0.185 ± 0.19
116 | I190Q | -0.0486 ± 0.036 | -0.118 ± 0.15
